Measurements taken from article PMC11164869.
No constants are given. Whether binding was seen depends on the method and setting. Binding seen in cells or lysates may run through a third protein. Tags and fused reporters may be left off the sequences shown.

Amino acid sequences for entries named in this document (tags omitted).
UniProt Q9Y6K9: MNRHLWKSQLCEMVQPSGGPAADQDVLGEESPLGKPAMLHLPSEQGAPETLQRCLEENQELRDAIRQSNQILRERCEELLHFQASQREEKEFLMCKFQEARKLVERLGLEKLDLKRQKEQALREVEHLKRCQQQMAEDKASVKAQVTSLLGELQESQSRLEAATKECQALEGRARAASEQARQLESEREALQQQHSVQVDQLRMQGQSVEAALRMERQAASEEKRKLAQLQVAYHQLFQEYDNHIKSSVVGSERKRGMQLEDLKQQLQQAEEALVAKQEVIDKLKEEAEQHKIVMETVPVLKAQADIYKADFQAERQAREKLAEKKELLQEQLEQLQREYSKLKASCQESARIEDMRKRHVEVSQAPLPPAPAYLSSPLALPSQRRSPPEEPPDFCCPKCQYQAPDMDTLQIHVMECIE

Target: T1, Flag-OTUD5 (WT) (human) (UniProt Q96G74)
T1 sequence: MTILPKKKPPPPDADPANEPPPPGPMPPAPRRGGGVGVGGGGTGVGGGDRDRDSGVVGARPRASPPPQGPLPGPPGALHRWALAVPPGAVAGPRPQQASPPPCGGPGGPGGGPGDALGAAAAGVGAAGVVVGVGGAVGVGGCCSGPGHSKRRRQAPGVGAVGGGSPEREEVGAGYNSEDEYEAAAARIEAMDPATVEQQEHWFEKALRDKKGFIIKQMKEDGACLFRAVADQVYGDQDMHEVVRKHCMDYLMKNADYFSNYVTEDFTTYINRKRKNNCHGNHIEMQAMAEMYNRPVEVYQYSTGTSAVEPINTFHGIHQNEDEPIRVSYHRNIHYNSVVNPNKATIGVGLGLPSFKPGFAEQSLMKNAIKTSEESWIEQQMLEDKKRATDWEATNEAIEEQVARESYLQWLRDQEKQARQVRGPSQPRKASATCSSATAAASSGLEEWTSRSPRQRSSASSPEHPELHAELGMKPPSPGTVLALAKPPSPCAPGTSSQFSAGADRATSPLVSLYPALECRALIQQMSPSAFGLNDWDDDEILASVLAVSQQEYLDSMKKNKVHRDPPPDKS
Assay: co-IP; HEK293T cells co-transfected with tagged plasmids; IP buffer 1% NP-40, 150 mM NaCl, 10 mM Tris-HCl pH 7.4, 1 mM EDTA; antibody with Protein A/G PLUS Agarose overnight; immunoblot

Myc-IKKγ (from UniProt Q9Y6K9 1-419)
binding: no binding
